# In the supplement of paper PMC8728848:
# The other results are listed elsewhere or left out.
# B1: Gal 9 (Canis lupus) (protein)
# chain: MAFSSSQPPYLSPGVPFSGKIQGGLQDGLKITINGTILYCNGTRFAVNFHSGHSDSDIAFHFNPRFEEGGYVVCNTKQKGSWGSEERKMQMPFQMGNPFELCFMVNSCDFKVTVNGSHFTQYSHRVPFHYVDTLSITGAVQLSYISFQSPGVWQSSSAPITQTVIHTVQTTPGQPFPNPIIPPTAYPTPTYPMPFFTSIPGGLYPSKSIIVSGTVLPGAKRFHINLRSGNDIAFHLNPRFNENTVVRNMQINNSWGSEERSLPRKMPFVQGQSFSVWIMCEGHCFKVAVDGEHLFEYYHRLKNLLAINNMEVAGDVQLTHVQT
# How the values were obtained:
# Experiment in all cases: glycan array binding signal (z-score within array); higher = stronger binding
# Settings in all cases: glycan notation: IUPAC condensed, linker removed
# [1] = biological target: Neu5Ac(a2-3)Gal(b1-3)GalNAc6S
# Summary of the method: (§1)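 The binding signal is a Z-score computed within each array and averaged over linkers. Arrays of the same protein sequence at different concentrations or buffers were also averaged together. Data originate from 3228 arrays in the Consortium for Functional Glycomics database, kept only where the protein sequence was available.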
# [2] = biological target: Neu5Ac(a2-3)Gal(b1-3)GlcNAc
# Summary of the method: as §1
# [3] = biological target: Neu5Ac(a2-3)Gal(b1-3)GlcNAc(b1-3)Gal(b1-3)GlcNAc
# Summary of the method: as §1
# [4] = biological target: Neu5Ac(a2-3)Gal(b1-3)GlcNAc(b1-3)Gal(b1-4)GlcNAc
# Summary of the method: as §1
# [5] = biological target: Neu5Ac(a2-3)Gal(b1-3)GlcNAc(b1-3)GalNAc
# Summary of the method: as §1
# [6] = biological target: Neu5Ac(a2-3)Gal(b1-3)GlcNAc6S
# Summary of the method: as §1
# [7] = biological target: Neu5Ac(a2-3)Gal(b1-3)[Fuc(a1-4)]GlcNAc
# Summary of the method: as §1
# [8] = biological target: Neu5Ac(a2-3)Gal(b1-3)[Fuc(a1-4)]GlcNAc(b1-3)Gal(b1-3)[Fuc(a1-4)]GlcNAc
# Summary of the method: as §1
# [9] = biological target: Neu5Ac(a2-3)Gal(b1-3)[Fuc(a1-4)]GlcNAc(b1-3)Gal(b1-4)[Fuc(a1-3)]GlcNAc
# Summary of the method: as §1
# [10] = biological target: Neu5Ac(a2-3)Gal(b1-3)[Neu5Ac(a2-3)Gal(b1-4)]GlcNAc
# Summary of the method: as §1
# [11] = biological target: Neu5Ac(a2-3)Gal(b1-3)[Neu5Ac(a2-6)]GalNAc
# Summary of the method: as §1
# Neu5Ac(a2-3)Gal(b1-4)Glc = biological target: Neu5Ac(a2-3)Gal(b1-4)Glc
# Summary of the method: as §1
# [12] = biological target: Neu5Ac(a2-3)Gal(b1-4)GlcNAc
# Summary of the method: as §1
# [13] = biological target: Neu5Ac(a2-3)Gal(b1-4)GlcNAc(b1-2)Man(a1-3)[GlcNAc(b1-2)Man(b1-4)GlcNAc(b1-2)Man(a1-6)]Man(b1-4)GlcNAc(b1-4)GlcNAc
# Summary of the method: as §1
# [14] = biological target: Neu5Ac(a2-3)Gal(b1-4)GlcNAc(b1-2)Man(a1-3)[Neu5Ac(a2-6)Gal(b1-4)GlcNAc(b1-2)Man(a1-6)]Man(b1-4)GlcNAc(b1-4)GlcNAc
# Summary of the method: as §1
# [15] = biological target: Neu5Ac(a2-3)Gal(b1-4)GlcNAc(b1-3)Gal
# Summary of the method: as §1
# [16] = biological target: Neu5Ac(a2-3)Gal(b1-4)GlcNAc(b1-3)Gal(b1-3)GlcNAc
# Summary of the method: as §1
# [17] = biological target: Neu5Ac(a2-3)Gal(b1-4)GlcNAc(b1-3)Gal(b1-4)GlcNAc
# Summary of the method: as §1
# [18] = biological target: Neu5Ac(a2-3)Gal(b1-4)GlcNAc(b1-3)Gal(b1-4)GlcNAc(b1-3)Gal(b1-4)GlcNAc
# Summary of the method: as §1
# [19] = biological target: Neu5Ac(a2-3)Gal(b1-4)GlcNAc(b1-3)Gal(b1-4)[Fuc(a1-3)]GlcNAc
# Summary of the method: as §1
# [20] = biological target: Neu5Ac(a2-3)Gal(b1-4)GlcNAc(b1-3)GalNAc
# Summary of the method: as §1
# [21] = biological target: Neu5Ac(a2-3)Gal(b1-4)GlcNAc(b1-6)[Gal(b1-3)]GalNAc
# Summary of the method: as §1
# [22] = biological target: Neu5Ac(a2-3)Gal(b1-4)GlcNAc(b1-6)[Neu5Ac(a2-3)Gal(b1-3)]GalNAc
# Summary of the method: as §1
# [23] = biological target: Neu5Ac(a2-3)Gal(b1-4)GlcNAc6S
# Summary of the method: as §1
# [24] = biological target: Neu5Ac(a2-3)Gal(b1-4)[Fuc(a1-3)]GlcNAc
# Summary of the method: as §1
# [25] = biological target: Neu5Ac(a2-3)Gal(b1-4)[Fuc(a1-3)]GlcNAc(b1-3)Gal
# Summary of the method: as §1
# [26] = biological target: Neu5Ac(a2-3)Gal(b1-4)[Fuc(a1-3)]GlcNAc(b1-3)Gal(b1-4)GlcNAc
# Summary of the method: as §1
# [27] = biological target: Neu5Ac(a2-3)Gal(b1-4)[Fuc(a1-3)]GlcNAc(b1-3)Gal(b1-4)[Fuc(a1-3)]GlcNAc(b1-3)Gal(b1-4)[Fuc(a1-3)]GlcNAc
# Summary of the method: as §1
# [28] = biological target: Neu5Ac(a2-3)Gal(b1-4)[Fuc(a1-3)]GlcNAc(b1-3)GalNAc
# Summary of the method: as §1
# [29] = biological target: Neu5Ac(a2-3)Gal(b1-4)[Fuc(a1-3)]GlcNAc(b1-6)[Gal(b1-3)]GalNAc
# Summary of the method: as §1
# [30] = biological target: Neu5Ac(a2-3)Gal(b1-4)[Fuc(a1-3)]GlcNAc6S
# Summary of the method: as §1
# [31] = biological target: Neu5Ac(a2-3)Gal6S(b1-4)GlcNAc
# Summary of the method: as §1
# [32] = biological target: Neu5Ac(a2-3)Gal6S(b1-4)[Fuc(a1-3)]GlcNAc
# Summary of the method: as §1
# Neu5Ac(a2-3)GalNAc = biological target: Neu5Ac(a2-3)GalNAc
# Summary of the method: as §1
# [33] = biological target: Neu5Ac(a2-3)GalNAc(b1-4)GlcNAc
# Summary of the method: as §1
# [34] = biological target: Neu5Ac(a2-3)[GalNAc(b1-4)]Gal(b1-4)Glc
# Summary of the method: as §1
# [35] = biological target: Neu5Ac(a2-3)[GalNAc(b1-4)]Gal(b1-4)GlcNAc
# Summary of the method: as §1
binder,measurement,setting,value
B1,glycan array binding signal (z-score),[1],0.182
same,glycan array binding signal (z-score),[2],0.401
same,glycan array binding signal (z-score),[3],0.38
same,glycan array binding signal (z-score),[4],0.34
same,glycan array binding signal (z-score),[5],0.089
same,glycan array binding signal (z-score),[6],-0.027
same,glycan array binding signal (z-score),[7],-0.346
same,glycan array binding signal (z-score),[8],-0.315
same,glycan array binding signal (z-score),[9],-0.306
same,glycan array binding signal (z-score),[10],-0.336
same,glycan array binding signal (z-score),[11],-0.055
same,glycan array binding signal (z-score),Neu5Ac(a2-3)Gal(b1-4)Glc,0.07
same,glycan array binding signal (z-score),[12],0.067
same,glycan array binding signal (z-score),[13],0.283
same,glycan array binding signal (z-score),[14],0.147
same,glycan array binding signal (z-score),[15],0.219
same,glycan array binding signal (z-score),[16],0.202
same,glycan array binding signal (z-score),[17],0.203
same,glycan array binding signal (z-score),[18],0.602
same,glycan array binding signal (z-score),[19],0.095
same,glycan array binding signal (z-score),[20],0.071
same,glycan array binding signal (z-score),[21],0.001
same,glycan array binding signal (z-score),[22],0.287
same,glycan array binding signal (z-score),[23],0.324
same,glycan array binding signal (z-score),[24],-0.21
same,glycan array binding signal (z-score),[25],-0.343
same,glycan array binding signal (z-score),[26],-0.306
same,glycan array binding signal (z-score),[27],-0.327
same,glycan array binding signal (z-score),[28],-0.217
same,glycan array binding signal (z-score),[29],-0.301
same,glycan array binding signal (z-score),[30],-0.33
same,glycan array binding signal (z-score),[31],-0.334
same,glycan array binding signal (z-score),[32],-0.323
same,glycan array binding signal (z-score),Neu5Ac(a2-3)GalNAc,-0.328
same,glycan array binding signal (z-score),[33],0.173
same,glycan array binding signal (z-score),[34],-0.294
same,glycan array binding signal (z-score),[35],-0.336
